Out of some 310,000 compounds screened, about 14,000 (4.5%) showed an effect of 50% or more. Effects have a minus sign here. The list shows a part of the results.
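Further: peak tail current of the secondary pulse compared with the same well before compound.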

The target in this assay is human ether-à-go-go-related gene (hERG) potassium channel (human, UniProt Q12809). Description: primary screen, population patch clamp on CHO cells stably expressing hERG.
human ether-à-go-go-related gene (hERG) potassium channel, sequence (Q12809 whole entry, looked up): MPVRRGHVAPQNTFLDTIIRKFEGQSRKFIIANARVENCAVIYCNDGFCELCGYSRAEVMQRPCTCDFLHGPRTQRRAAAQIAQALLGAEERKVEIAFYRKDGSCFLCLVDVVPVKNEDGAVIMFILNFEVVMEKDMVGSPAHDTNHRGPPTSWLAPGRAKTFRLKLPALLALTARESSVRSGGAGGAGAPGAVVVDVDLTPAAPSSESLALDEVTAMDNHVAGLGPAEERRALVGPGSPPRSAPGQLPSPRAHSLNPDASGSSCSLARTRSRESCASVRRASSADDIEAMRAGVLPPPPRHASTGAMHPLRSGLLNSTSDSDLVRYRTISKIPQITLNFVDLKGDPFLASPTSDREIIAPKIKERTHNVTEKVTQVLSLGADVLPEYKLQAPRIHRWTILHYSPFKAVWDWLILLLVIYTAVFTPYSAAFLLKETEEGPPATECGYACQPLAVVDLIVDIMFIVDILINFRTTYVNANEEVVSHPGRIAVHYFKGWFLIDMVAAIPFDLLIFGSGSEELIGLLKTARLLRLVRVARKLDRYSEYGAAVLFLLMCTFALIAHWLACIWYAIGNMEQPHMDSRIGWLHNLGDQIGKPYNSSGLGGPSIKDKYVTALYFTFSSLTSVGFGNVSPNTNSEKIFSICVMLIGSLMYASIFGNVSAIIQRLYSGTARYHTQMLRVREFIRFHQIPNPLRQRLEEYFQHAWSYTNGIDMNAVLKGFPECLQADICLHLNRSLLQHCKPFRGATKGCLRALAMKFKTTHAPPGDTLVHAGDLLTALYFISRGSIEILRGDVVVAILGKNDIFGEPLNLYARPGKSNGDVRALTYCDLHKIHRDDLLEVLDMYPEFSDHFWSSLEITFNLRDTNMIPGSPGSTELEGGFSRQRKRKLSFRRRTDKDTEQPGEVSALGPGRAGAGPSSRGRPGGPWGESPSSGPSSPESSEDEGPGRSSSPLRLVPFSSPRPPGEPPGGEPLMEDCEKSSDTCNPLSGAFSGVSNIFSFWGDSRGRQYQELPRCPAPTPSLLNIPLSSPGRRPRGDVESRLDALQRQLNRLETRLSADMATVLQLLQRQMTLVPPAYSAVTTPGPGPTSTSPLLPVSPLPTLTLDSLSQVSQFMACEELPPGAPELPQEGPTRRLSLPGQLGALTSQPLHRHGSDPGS
On to `COc1ccc2cc(C3(C)NC(=O)N(CC(=O)Nc4c(C)n(C)n(-c5ccccc5)c4=O)C3=O)ccc2c1` (stereo not shown), for which the “hERG current change (%, negative = inhibition) at 10uM” value stood at 4.2%. The figure for `COc1cccc(C(C(=O)NC(C)(C)C)N(CC(C)C)C(=O)CCC(=O)Nc2cc(C)on2)c1OC` (stereo not shown) is 8.72%.

For the compound `Nc1nc(=S)[nH]c2c1C1(CCCCC1)Cc1ccccc1-2`, the “hERG current change (%, negative = inhibition) at 10uM” value was 0.291%. Take `COc1ccc(C(c2c(O)nc[nH]c2=O)c2c(O)nc[nH]c2=O)cc1`: the “hERG current change (%, negative = inhibition) at 10uM” value is 22.2%. As for `COc1ccccc1N(C(=O)Cn1nnc(-c2ccc(C)o2)n1)C(C(=O)NC1CCCC1)c1ccncc1` (stereo not shown), the “hERG current change (%, negative = inhibition) at 10uM” value turned out to be 19.9%. With `CCN(CC)S(=O)(=O)c1cnccc1N1CCN(c2cccc(Cl)c2)CC1` the figure was -8.04%; with `CC(C)CC(N)c1cn([C@@H](CCC(=O)O)C(=O)N2CCNCC2)nn1.Cl` (stereo partly shown), 17.2%; with `COc1cc(C(=O)NC(C)c2cnn(-c3ccccc3C)c2C)cc(OC)c1OC` (stereo not shown), -51%.

On to `Cn1c(=O)c2c(nc(NC3CCCCC3)n2CC(O)COc2ccccc2)n(C)c1=O` (stereo not shown), for which the “hERG current change (%, negative = inhibition) at 10uM” value is reported as 13%. The figure for `Cc1cccc(OCC(=O)NNC(=O)C2CCCCC2C(=O)O)c1` (stereo not shown) is -0.28%. Regarding `COc1ccc(-c2cc(-c3n[nH]c(=S)n3-c3ccccc3Cl)[nH]n2)cc1`, the “hERG current change (%, negative = inhibition) at 10uM” value is reported as 13.5%. With `O=C(OCn1ncc(Cl)c(Cl)c1=O)c1ccc(F)cc1`, the “hERG current change (%, negative = inhibition) at 10uM” value is reported as -3.74%. With `COc1ccccc1C(=O)COC(=O)CNS(=O)(=O)c1ccc(NC(C)=O)cc1` the figure was 15%; with `COc1ccc(C=NCCC2(O)CC(C)N(C)CC2C)cc1` (stereo not shown), 8.31%; with `CN(C)CC(C)(C)CNS(=O)(=O)c1ccc(Cl)c(Cl)c1`, -6.25%. With `S=c1[nH]nc(CCc2ccccc2)n1-c1ccc(Cl)cc1` the figure was 9.95%; with `NC(=O)CSCc1c(Cl)cccc1Cl`, -1.28%.

In the case of `COc1cccc(C2/C(=C(\O)c3ccc4c(c3)OCCO4)C(=O)C(=O)N2CCN(C)C)c1` (stereo not shown), the “hERG current change (%, negative = inhibition) at 10uM” value is 5.98%. As to `COc1ccc2c(Cl)c(C(=O)NN3CCN(C)CC3)sc2c1`, the “hERG current change (%, negative = inhibition) at 10uM” value was 3.23%. With `COc1ccc(OC)c(/C(C)=N\NC(=O)c2cc3cc(Cl)ccc3n2C)c1` the figure was 19.9%; with `COCCNC(=O)CN(Cc1ccc(Cl)cc1)S(C)(=O)=O`, -4.31%. With `CCOC(=O)c1cnn2c(C)cc(-c3ccccc3)nc12` the figure was -10.4%. With `CSc1ncc(CN2CCc3c([nH]c4ccccc34)C2c2cccc(C)n2)cn1` (stereo not shown) the figure was -13.8%; with `CC1CN(S(=O)(=O)c2csc(C(=O)Nc3ccccc3)c2)CC(C)O1` (stereo not shown), 14.8%.

As for `COC1=CC=C2[C@H]3Cc4ccc(OC)c5c4[C@@]2(CCN3C)[C@H]1O5.Cl`, the “hERG current change (%, negative = inhibition) at 10uM” value is recorded as 10.3%.

`CCN(CC)S(=O)(=O)c1cccc(C(=O)N[C@H](C(=O)NCc2ccc(Cl)cc2)C(C)C)c1`: the “hERG current change (%, negative = inhibition) at 10uM” value is given as -9.42%. With `CC1CCN(CCC(=O)Nc2ccc3c(c2)CCC3)CC1` the figure was -29.4%; with `COc1cc(SC)ccc1C(=O)N1CCN(c2ccccc2OC)CC1`, -24.5%. With `Cc1c(CCC(=O)NCCCN2CCCC2=O)c(=O)oc2cc(O)ccc12`, the “hERG current change (%, negative = inhibition) at 10uM” value is 13.5%. With `Cc1ccc(-n2nc3c(=O)n(C(C)C(=O)NC4CC4)nc(C)c3c2C)cc1` (stereo not shown) the figure was -2.58%. The figure for `COC(=O)c1cn(NC(=O)Cc2ccccc2Br)c(=O)c2ccccc12` is 18.1%; for `CN1CCN(C(=O)COc2ccc(S(=O)(=O)NC3CCCCC3)cc2Cl)CC1` it is 6.73%; for `COc1ccc2c(c1OC)CN(C)CCc1cc3c(cc1C(=O)C2)OCO3` it is -81%. The figure for `CC(c1ccncn1)N(C)C(=O)c1ccc2oc(Cc3ccccc3)nc2c1` (stereo not shown) is -4.15%; for `Cc1c(NC(=O)c2ccc(N(Cc3ccccc3)S(C)(=O)=O)cc2)c(=O)n(-c2ccccc2)n1C` it is 29.6%; for `Cc1onc(-c2ccccc2)c1-c1nnc(-c2ccccc2C(F)(F)F)o1` it is -0.898%. In the case of `CCn1cc(Cl)c(C(=O)NNC(=O)CCn2ccc([N+](=O)[O-])n2)n1`, the “hERG current change (%, negative = inhibition) at 10uM” value turned out to be 36.6%. The figure for `O=C(c1ccc(S(=O)(=O)N2CCCCC2)cc1)N1CCN(c2ccccc2F)CC1` is -16.6%; for `COc1ccc(C(=O)Nc2cccc3c2C(=O)NC3=O)cc1S(=O)(=O)N1CCOCC1` it is -6.84%. The figure for `COc1cc(C(=O)N2CCN(c3ncnc4sc(C)c(C)c34)CC2)cc(OC)c1OC` is -47.2%; for `COc1cc(CNc2nc3ccccc3[nH]2)cc(OC)c1OC.Cl` it is -8.99%. With `CCCC(=O)NCc1cc(-c2nn(C)c(=O)c3ccccc23)ccc1OC` the figure was 7.01%. In the case of `COC(=O)/C(=C/c1ccco1)NC(=O)c1ccccc1`, the “hERG current change (%, negative = inhibition) at 10uM” value is given as -1.9%. The figure for `Cn1c(SCC(=O)NCc2ccc(F)cc2)nc2c([nH]c3ccccc32)c1=O` is 8.05%; for `C=CCn1c(SCC(=O)OCC)nc2cc(C(=O)NCc3ccco3)ccc2c1=O` it is -17.6%.

In the case of `COc1ccc2nc(NC(=O)C34CC5CC(CC(NC(C)=O)(C5)C3)C4)sc2c1`, the “hERG current change (%, negative = inhibition) at 10uM” value was -11.1%.

As for `COC(=O)c1ccc(-c2noc(CN(C)Cc3ccncc3C)n2)cc1`, the “hERG current change (%, negative = inhibition) at 10uM” value came out at 3.71%. The figure for `COc1cccc(C(=O)Nc2ccc(C3CC3(Cl)Cl)cc2)c1` (stereo not shown) is 4.37%. With `CC(=O)N1c2c(cc(Br)cc2S(=O)(=O)N2CCN(c3ccccc3F)CC2)CC1C` (stereo not shown) the figure was 11.9%. The figure for `CCOc1ccc(NC(=O)C(C)Oc2ccccc2C(=O)Nc2ccc(C)c(Cl)c2)cc1` (stereo not shown) is 0.82%. Consider `COc1ccc(C(=O)NCC(=O)OCc2cccc(Br)c2)cc1`, for which the “hERG current change (%, negative = inhibition) at 10uM” value came to 6.87%. Consider `CC(OC(=O)c1cc2sccc2n1C)C(=O)NCCc1ccccc1` (stereo not shown), for which the “hERG current change (%, negative = inhibition) at 10uM” value was -20.6%. With `CCOc1ccc2nc(COC(=O)c3ccco3)c(C(C)=O)[n+]([O-])c2c1` the figure was 0.493%. With `CC1CN(C(=O)CSc2nc(-c3ccc(F)cc3)cs2)CC(C)O1` (stereo not shown) the figure was -4.53%; with `COc1ccc(-c2csc(NC(=O)COC(=O)c3ccco3)n2)cc1`, 3.04%; with `Cc1ccc(S(=O)(=O)N2CCN(C(=O)CSc3nnc(C)c(=O)[nH]3)CC2)cc1`, 7.55%.

Turning to `COc1ccc(NC(=O)/C(C#N)=C/c2ccc(-c3ccc(Cl)c(C(=O)O)c3)o2)cc1`, the “hERG current change (%, negative = inhibition) at 10uM” value worked out at 25.4%. As to `CC(C)CCn1c(=O)[nH]c2ccccc21`, the “hERG current change (%, negative = inhibition) at 10uM” value was determined as 4.02%.

For the compound `CCC(C)(C)NC(=O)CN(C(=O)c1snc(C(N)=O)c1N)c1ccc(OC)c(OC)c1`, the “hERG current change (%, negative = inhibition) at 10uM” value was 4.07%.

Take `CC(O)[C@H]1CNCCN1CCc1cc(C(F)(F)F)cc(C(F)(F)F)c1` (stereo partly shown): the “hERG current change (%, negative = inhibition) at 10uM” value is -9.86%. The figure for `CCC12CN3CCN(CC(C3)/C1=N\NC(=O)c1ccc(C(C)(C)C)cc1)C2` is -22.9%. Regarding `O=C(Nc1ccccc1F)c1c[nH]c(=O)[nH]c1=O`, the “hERG current change (%, negative = inhibition) at 10uM” value worked out at 1.43%.

Take `CC(C)c1nc(Cl)c(C#N)c2c1CSC(C)(C)C2`: the “hERG current change (%, negative = inhibition) at 10uM” value stood at 4.23%. Take `COc1ccc(C(=O)NNC(=O)CCC(=O)Nc2ccc(C)cc2C)cc1`: the “hERG current change (%, negative = inhibition) at 10uM” value is 11.7%. The figure for `CCCc1cc(=O)[nH]c(SCC(=O)Nc2c(C)cccc2C)n1` is 6.31%. With `COc1ccc(C(C(=O)NC2CCCCC2)N(C(=O)c2ccccn2)c2cccnc2)cc1` (stereo not shown) the figure was 22.4%. Consider `O=C(CCc1nnc(-c2ccc3c(c2)OCO3)o1)N(Cc1ccncc1)CC1CCCO1` (stereo not shown), for which the “hERG current change (%, negative = inhibition) at 10uM” value was -7.66%. The figure for `CCN(CC)CCCNC(=O)c1nn(-c2ccc(OC)cc2OC)c(=O)c2ccccc12` is -0.745%; for `O=C1N=C(N2CCOCC2)S/C1=C/c1cccs1` it is -5.52%; for `Cc1ccccc1C1NC(=O)c2ccccc2O1` (stereo not shown) it is 17.1%. The figure for `COP(=O)(OC)c1nc(-c2cccc3ccccc23)oc1N1CCOCC1` is 2.16%; for `COc1ccc(N2CCN(Cc3nc4scc(-c5ccccc5)c4c(=O)[nH]3)CC2)cc1` it is 7.98%. With `Cc1ccc(Sc2nc(-c3ccccc3)nnc2C(F)(F)F)cc1` the figure was 11.7%; with `COc1ccc(C)cc1N(CC(=O)N1CCCCCC1)S(C)(=O)=O`, 12.2%. For `CC1=NN(C(=O)c2c(Br)cnn2C)C(O)(C(F)(F)F)C1` (stereo not shown), the “hERG current change (%, negative = inhibition) at 10uM” value is listed as -24.6%.

In the case of `COc1ccc(C2c3c(oc4ccccc4c3=O)C(=O)N2CCCN2CCOCC2)cc1` (stereo not shown), the “hERG current change (%, negative = inhibition) at 10uM” value is -7.15%. With `CCOc1ccc(OCC(O)CN2CCc3ccccc3C2)cc1.Cl` (stereo not shown) the figure was -66.3%; with `CN(C)S(=O)(=O)c1cccc(NC(=O)C2Cc3ccccc3CN2C(=O)c2ccccc2)c1` (stereo not shown), 4.2%. The figure for `O=C(c1cc(COc2ccc3ncccc3c2)on1)N1CCC[C@H]1CO` is 4.88%; for `COc1ccccc1Nc1nc(NCc2ccco2)nc(N)c1[N+](=O)[O-]` it is 14.9%; for `CC1CCCCC1NC(=S)Nc1ccc(SC(F)F)cc1` (stereo not shown) it is -4.24%. The figure for `COc1ccc2[nH]cc(CCNS(=O)(=O)c3ccc(F)cc3)c2c1` is 4.05%; for `Cc1sc2nc(COC(=O)C(NC(=O)c3ccc(Cl)cc3Cl)C(C)C)[nH]c(=O)c2c1C` (stereo not shown) it is -8.15%. Consider `O=C(NN=C1C2CC3CC(C2)CC1C3)c1cc(Cl)ccc1O`, for which the “hERG current change (%, negative = inhibition) at 10uM” value is -9.2%. The figure for `COc1ccc(CCNC(=O)C2CCCN(S(=O)(=O)c3ccc(F)cc3)C2)cc1` (stereo not shown) is -0.344%.

Values taken from paper PMC4336329 (PLoS ONE, 2015).
